This data set in a line: xn = mol fraction of the nth substance listed. The note with it: 298.15 K, 101 kPa.

Some of these densities may be calculated back from excess volumes.

The compound `C[N+](=O)[O-]` + CC[NH3+].O=[N+]([O-])[O-] registered a mass density (x1 = 1) of 1130.9 kg/m3.
With `CC[NH3+].O=[N+]([O-])[O-]` + C[N+](=O)[O-], the mass density runs as follows: (x1 = 0.0034) 1132.1 kg/m3; (x1 = 0.0062) 1133 kg/m3; (x1 = 0.0112) 1133 kg/m3; (x1 = 0.0129) 1134.2 kg/m3; (x2 = 0.0498) 1209.2 kg/m3; (x2 = 0.1048) 1207.3 kg/m3. Moreover, the mass density is recorded as 1205.9 kg/m3 (x2 = 0.2032), 1203.4 kg/m3 (x2 = 0.3007), 1199.2 kg/m3 (x2 = 0.3874) and 1196.1 kg/m3 (x2 = 0.4983).

What is called mass density is mass per unit of volume.

The values are drawn from a compilation of properties of binary mixtures (doi:10.1016/j.molliq.2016.09.008).
